This is an account of results in publication PMC12040169 (PLOS Biology, 2025).

The list shows a part of the results.

The experiment has as its system T1, C. trachomatis L2/434/Bu expressing GFP (CTL2-GFP).
T1 construct: L2/434/Bu GFP intracellular growth in HeLa cells
On the set-up: species or system HeLa; C. trachomatis total inclusion area by high-content imaging, normalised to DMSO. Particulars: total inclusion area; 28.5 h, 10 µM; inhibitor. The gist of the method: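 High-content imaging followed the bulk GFP/resorufin measurement: fixed, Hoechst-stained cells were scored for GFP inclusions and host nuclei per well. Total inclusion area and count served as growth proxies, nuclei number as the viability proxy. MIC calculation matched the bulk assay.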
As for `CCC(=O)N1CCC(c2nc(C3CCCC3)no2)C1` (stereo not shown) [CBK285458], the “% of control remaining” value was determined as 71.9223.
Then `COC(=O)c1sccc1-c1ccc(C2C3=C(CCCC3=O)NC3=C2C(=O)CCC3)o1` [CBK005748], with 95.2418; and `COc1c(Cl)cc(Cl)cc1CNCCCN1CCOCC1` [CBK278165C], with 80.123.
Take `CCNc1nccnc1-c1ccncc1` [CBK088586]: the “% of control remaining” value amounted to 104.407.
Then `Cc1ccn(CCNC(=O)Cn2c3c(c4ccccc42)CCC3)n1` [CBK282708], with 124.541.
For `CC(C)(C)C1=CC2=NC3(CCC3)C3C[C@](O)(Cc4ccccc4)[C@@H](O)[C@@H]3N2O1` (stereo partly shown) [CBK303261], the “% of control remaining” value was found to be 83.2992.
With `O=C(Nc1cc(Oc2cccnc2)cc([N+](=O)[O-])c1)c1cc2nc(-c3ccccc3)cc(-c3ccccc3)n2n1` [CBK262554] the figure was 83.4528; with `COc1ccc([N+](=O)[O-])cc1N(CC(=O)Nc1cccc2ccccc12)S(C)(=O)=O` [CBK268197], 68.6765; with `COc1cc(/C=C/C(=O)O)cc(S(=O)(=O)N2CCc3ccccc3C2)c1OC` [CBK264406], 110.706.
Then `N#Cc1ccc(-c2csc(NC(=O)c3ccc(Cl)s3)n2)cc1` [CBK287321], with 79.1229; and `Cc1nc2ccc(C(=O)N3CCN(C)CC3)cn2c1N(C)C(=O)CCc1ccccc1` [CBK146786], with 112.029.
Consider `OC1CC(c2cc(F)ccc2F)N(CCc2ccncc2)C1` (stereo not shown) [CBK305106], for which the “% of control remaining” value stood at 94.3964.
With `CC(C)(C)OC(=O)NCc1ccc(CNCc2cccc(Cl)c2)cc1` [CBK056704] the figure was 56.7362; with `Cc1oc(CC(C)C)c(CN2CCCCC2)c1C(=O)O` [CBK265448C], 87.752.
With `Cc1cc(CN2CCCN(S(=O)(=O)c3ccc(C(F)(F)F)cc3Cl)CC2)cc(C)c1O` [CBK063102] the figure was 91.5139; with `COc1ccc(C)cc1C1(CNC(=O)C2CC(O)CN2)CCOCC1` (stereo not shown) [CBK304162], 110.479; with `O=C(O)c1ccccc1-c1ccccc1C(=O)Nc1cccc(-c2nc3ccccc3o2)c1` [CBK262767], 106.164.
With `Cc1nnc(NC(=O)Cc2ccc(F)cc2)s1` [CBK287360] the figure was 73.6357; with `O=C(Nc1ccccc1-n1cccc1)C1Cc2c([nH]c3ccccc23)C2(CCN(Cc3ccccc3)C2)N1` (stereo not shown) [CBK059395], 101.556.
`CCN(Cc1ccccn1)C(=O)NC(C)c1cccc(NC(C)=O)c1` (stereo not shown) [CBK305380]: the “% of control remaining” value was 70.873.
With `CC(C)(C)NC(=O)C[C@@H]1CCNC[C@@H]1Cc1cc(-c2ccccc2)on1` [CBK289145], the “% of control remaining” value was 101.213.
With `Cc1c(Cl)c([N+](=O)[O-])nn1CCCC(=O)Nc1sc2c(c1C#N)CCC(C(C)(C)C)C2` (stereo not shown) [CBK269111] the figure was 101.532; with `Cc1csc(C(C)NC(=O)NC2CCCN(c3ccn(C)n3)C2=O)n1` (stereo not shown) [CBK304426], 45.6124.
With `Nc1nonc1-n1nncc1CN1CCCCC1` [CBK307045] the figure was 73.0113; with `O=C(Cn1cccc(C(=O)Nc2cc(F)ccc2N2CCCC2)c1=O)NC1CCCCC1` [CBK286008], 109.052.
For `Cc1cc(C)n(C(=O)c2ccc([N+](=O)[O-])cc2N)n1` [CBK266491], the “% of control remaining” value was 106.935.
With `Cc1ccc(NC(=S)NC(=O)Cc2ccccc2)c(O)c1` [CBK264337] the figure was 106.225; with `O=C1COc2ccccc2C/C=C/CC2(CCCN(C(=O)CCN3CCCC3)C2)CN1` (stereo not shown) [CBK292136], 102.737.
Then `Oc1ccccc1-c1cc(-c2ccccc2)c2c(ccc3ncccc32)n1` [CBK261276], with 96.7571; and `Cc1nc(COc2ccc(C(=O)Nc3ccc(C(=O)O)cc3C)cc2)cs1` [CBK295360], with 101.351.
With `CCn1cc(-c2cncn2CCCOc2cccc(C)c2)cn1` [CBK281760] the figure was 136.939; with `CN(CCN1CCCCC1)C(=O)Cn1cnc2ccccc21` [CBK281515], 111.965; with `O=C(O)C1(NS(=O)(=O)c2ccc(F)c(Cl)c2)CCCCC1` [CBK267276], 103.875.
Regarding `CNC(=O)c1cc(-c2cccc(Cl)c2)oc1CC(=O)c1ccc(CN2CCCC2)cc1` [CBK047558], the “% of control remaining” value is recorded as 98.6333.
Then `O=S(=O)(NCCCN1CCOCC1)c1cc(C(F)(F)F)cc(C(F)(F)F)c1` [CBK005796], with 123.238; and `O=C(NC(NCc1ccc2c(c1)OCO2)(C(F)(F)F)C(F)(F)F)c1cccnc1` [CBK074397], with 91.0608.
Then `O=C(O)c1ccc(N2C(=O)CC(N3CCN(CCO)CC3)C2=O)cc1` (stereo not shown) [CBK271638], with 92.8797.
Take `N#CCCn1cc(C(=O)N2CCCCC2)c(-c2ccc(F)cc2)n1` [CBK306191]: the “% of control remaining” value is listed as 32.1259.
With `O=C(c1ccsc1NS(=O)(=O)/C=C/c1ccccc1)N1CCOCC1` [CBK042285] the figure was 86.0751; with `Cc1cc(C(C)(C)C)cc(C)c1COC(=O)c1ccncc1` [CBK296995], 53.4003.
With `O=[N+]([O-])c1cccc(S(=O)(=O)NCCOc2cccc3cccnc23)c1` [CBK268489] the figure was 113.635; with `Cc1nccn1CCC(=O)Nc1ccccc1Oc1ccc(F)cc1` [CBK281473], 104.693; with `NC(=S)Nc1nc(-c2ccc(Br)cc2)cs1` [CBK023259], 64.0072.
With `Cc1cc(NC(=O)Cc2cn3ccsc3n2)ccc1N1CCCC1` [CBK306080] the figure was 86.8398; with `O=C(CN1CCN(Cc2ccc3c(c2)OCO3)CC1)Nc1ccc(Oc2ccccc2)cc1` [CBK265864], 68.6461.
`O=C1N[C@@H](Cc2ccc(F)cc2)C(=O)N2CCN(C(=O)N3CCOCC3)C[C@H]12` [CBK289603]: the “% of control remaining” value amounted to 128.014.
Then `CC(C)(C)OC(=O)N1CCN(CCOc2ccc(NC(=O)OCc3ccccc3)cc2F)CC1` [CBK016854], with 75.4737.
Then `Nc1ncc(-c2cccc(C(F)(F)F)c2)c2cccnc12` [CBK067590], with 94.3275; and `Cc1ccc(S(=O)(=O)CC(=O)N2CCN(C(=O)c3ccco3)CC2)cc1` [CBK144469], with 85.5757.
Then `CCN(CC(=O)NCc1ccccn1)S(=O)(=O)c1ccccc1` [CBK269546], with 88.9119.
For `Cc1cc2c(N3CCCC(NS(C)(=O)=O)C3)nccc2o1` (stereo not shown) [CBK306464], the “% of control remaining” value is recorded as 85.4088.
Consider `Cc1nn2c(N)ncnc2c1-c1ccc(Cl)cc1` [CBK287880], for which the “% of control remaining” value came to 58.8797.
With `COc1cccc(CN2CCN(C(=O)Cc3cccs3)[C@@H](C)C2)c1` [CBK285487] the figure was 99.8852; with `Cc1noc(C)c1C(=O)N1CCn2cc(C(F)(F)F)nc2C1` [CBK282431], 100.052.
As for `O=C(CSc1nc2sc3c(c2c(=O)n1-c1ccccc1)CCCC3)NCCc1ccccc1` [CBK263280], the “% of control remaining” value is given as 95.6944.
With `Cn1c(=O)n(CCN2CCOCC2)c(=O)c2c1nc1n2CCN1c1ccc(Oc2ccccc2)cc1` [CBK269202] the figure was 101.003; with `O=c1[nH]c2ncc(-c3ccsc3)nc2n1C1CCCCC1` [CBK064574], 94.4985; with `O=C(NCc1ccco1)c1cccc(Oc2ccccc2)c1` [CBK270333], 103.491.
`Cc1ccc2c(c1)cc(C(=O)N(C)CC1(C)COC1)n2C` [CBK281723]: the “% of control remaining” value is reported as 84.4162.
For the molecule `FC(F)(F)c1[nH]c2ncccc2c1CN1CCN2CCCCC2C1` (stereo not shown) [CBK285355], the “% of control remaining” value worked out at 86.4341.
Then `O=C(O)CCN1C(=O)c2ccc(NC(=O)CCc3ccccc3)cc2C1=O` [CBK266422], with 124.07; and `CC(=O)Nc1ccc(NS(=O)(=O)c2ccc(C)c(C(=O)O)c2)cc1` [CBK295162], with 111.327; and `O=C(COc1cccc(Cl)c1)NCCc1ccc(S(=O)(=O)NC(=O)NC2CCCCC2)cc1` [CBK011798], with 104.894.
On to `CC(C)(C)c1ccc(C(O)CN2CCC(O)(c3ccc4c(c3)OCO4)CC2)cc1` (stereo not shown) [CBK286336], for which the “% of control remaining” value worked out at 83.627.
As for `Cc1cnc2[nH]c(C3CC3)c(CN3CC(C)OC(C)C3)c2c1` (stereo not shown) [CBK284741], the “% of control remaining” value came out at 94.2469.
With `Cn1ccnc1C1(O)CC2CCC(C1)N2C(=O)c1ccccc1Cl` (stereo not shown) [CBK284090], the “% of control remaining” value amounted to 113.591.
With `Cc1ccc2[nH]c3c(c2c1)CCOC31CCN(CCOc2cccc3c2CCCC3=O)CC1` [CBK040230] the figure was 62.4158; with `CC(C)Nc1cc(Cl)ncn1` [CBK081511], 84.4015.
With `COc1ccc(-c2cnn(-c3ccc(OC)cc3)n2)cc1` [CBK112745] the figure was 94.9723; with `Cc1c(-c2cncn2C(C)CN2CCOCC2)[nH]c2ccccc12` (stereo not shown) [CBK281795], 78.4225.
With `COc1ccc(-c2nc(-c3cc4ccccc4o3)cnc2N)cc1OC` [CBK064099] the figure was 38.0358.
Turning to `Cc1ccc(-c2oncc2C(=O)NCc2cccs2)cc1` [CBK153679], the “% of control remaining” value turned out to be 112.109.
As for `CN(C)CCNC(=O)C1CCN(c2nc3c(-c4ccccc4F)csc3c(=O)[nH]2)CC1` [CBK215437], the “% of control remaining” value was 91.125.
Then `Cc1ccc(CN(CCCn2ccnc2)Cc2cncn2C)s1` [CBK283106], with 95.5962.
Then `O=C(NC(c1ccccc1)c1ccccc1)N1CCN(CCc2ccccc2)CC1` [CBK158905], with 72.5439; and `O=C1CC2(CCN(C(=O)c3ccoc3)CC2)Oc2ccc3ccccc3c21` [CBK156444], with 77.4833; and `C[N+](C)(C)c1ccc(C(=O)O)cc1` [CBK260929B], with 87.2739.
Then `C[C@@H]1CN(C(=O)c2cc3c(C(=O)OC(C)(C)C)ncn3c3ccc(Cl)cc23)C[C@H](C)N1` [CBK016744], with 37.2797; and `COc1ccc(OC)c(-c2cc(C(=O)O)c(C)s2)c1` [CBK049922], with 39.9493.
